# The other results are listed elsewhere or left out.
# Legend:
# Assay in all cases: glycan array binding signal (z-score within array); higher = stronger binding
# Conditions in all cases: glycan notation: IUPAC condensed, linker removed
# [1] = biological target: Gal(b1-3)GlcNAc(b1-2)Man(a1-3)[Gal(b1-3)GlcNAc(b1-2)Man(a1-6)]Man(b1-4)GlcNAc(b1-4)[Fuc(a1-6)]GlcNAc
# How it was run: (§1)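 Glycan array data were curated from 3228 arrays in the Consortium for Functional Glycomics database and kept only where the protein sequence was available. Glycan names were converted to IUPAC-condensed notation, and columns mapping to the same glycan were averaged. The binding signal is a within-array Z-score, averaged across arrays of the same protein sequence at different concentrations or buffers and across linkers. Negative Z-scores can be read as non-binding.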
# [2] = biological target: Gal(b1-3)GlcNAc(b1-2)Man(a1-3)[GlcNAc(b1-4)][Gal(b1-3)GlcNAc(b1-2)Man(a1-6)]Man(b1-4)GlcNAc(b1-4)GlcNAc
# How it was run: as §1
# [3] = biological target: Gal(b1-3)GlcNAc(b1-2)[Gal(b1-3)GlcNAc(b1-6)]Man(a1-6)[Gal(b1-3)GlcNAc(b1-2)Man(a1-3)]Man(b1-4)GlcNAc(b1-4)GlcNAc
# How it was run: as §1
# [4] = biological target: Gal(b1-3)GlcNAc(b1-3)Gal(b1-3)GlcNAc
# How it was run: as §1
# [5] = biological target: Gal(b1-3)GlcNAc(b1-3)Gal(b1-4)Glc
# How it was run: as §1
# [6] = biological target: Gal(b1-3)GlcNAc(b1-3)Gal(b1-4)GlcNAc
# How it was run: as §1
# [7] = biological target: Gal(b1-3)GlcNAc(b1-3)Gal(b1-4)GlcNAc(b1-2)Man(a1-3)[Gal(b1-3)GlcNAc(b1-3)Gal(b1-4)GlcNAc(b1-2)Man(a1-6)]Man(b1-4)GlcNAc(b1-4)GlcNAc
# How it was run: as §1
# [8] = biological target: Gal(b1-3)GlcNAc(b1-3)Gal(b1-4)GlcNAc(b1-2)[Gal(b1-3)GlcNAc(b1-3)Gal(b1-4)GlcNAc(b1-6)]Man(a1-6)[Gal(b1-3)GlcNAc(b1-3)Gal(b1-4)GlcNAc(b1-2)Man(a1-3)]Man(b1-4)GlcNAc(b1-4)[Fuc(a1-6)]GlcNAc
# How it was run: as §1
# [9] = biological target: Gal(b1-3)GlcNAc(b1-3)Gal(b1-4)GlcNAc(b1-3)Gal(b1-4)GlcNAc(b1-2)[Gal(b1-3)GlcNAc(b1-3)Gal(b1-4)GlcNAc(b1-3)Gal(b1-4)GlcNAc(b1-6)]Man(a1-6)[Gal(b1-3)GlcNAc(b1-3)Gal(b1-4)GlcNAc(b1-3)Gal(b1-4)GlcNAc(b1-2)Man(a1-3)]Man(b1-4)GlcNAc(b1-4)[Fuc(a1-6)]GlcNAc
# How it was run: as §1
# [10] = biological target: Gal(b1-3)GlcNAc(b1-3)Gal(b1-4)GlcNAc(b1-6)[Gal(b1-3)GlcNAc(b1-3)]Gal(b1-4)Glc
# How it was run: as §1
# [11] = biological target: Gal(b1-3)GlcNAc(b1-3)Gal(b1-4)[Fuc(a1-3)]GlcNAc
# How it was run: as §1
# [12] = biological target: Gal(b1-3)GlcNAc(b1-3)Gal(b1-4)[Fuc(a1-3)]GlcNAc(b1-6)[Gal(b1-3)GlcNAc(b1-3)]Gal(b1-4)Glc
# How it was run: as §1
# [13] = biological target: Gal(b1-3)GlcNAc(b1-3)GalNAc
# How it was run: as §1
# [14] = biological target: Gal(b1-3)GlcNAc(b1-6)Gal(b1-4)GlcNAc
# How it was run: as §1
# [15] = biological target: Gal(b1-3)GlcNAc(b1-6)GalNAc
# How it was run: as §1
# [16] = biological target: Gal(b1-3)GlcNAc(b1-6)[Gal(b1-3)]GalNAc
# How it was run: as §1
# Gal(b1-3)GlcNAc6S = biological target: Gal(b1-3)GlcNAc6S
# How it was run: as §1
# [17] = biological target: Gal(b1-3)[Fuc(a1-4)]GlcNAc
# How it was run: as §1
# [18] = biological target: Gal(b1-3)[Fuc(a1-4)]GlcNAc(b1-2)Man
# How it was run: as §1
# [19] = biological target: Gal(b1-3)[Fuc(a1-4)]GlcNAc(b1-2)Man(a1-3)[Gal(b1-3)[Fuc(a1-4)]GlcNAc(b1-2)Man(a1-6)]Man(b1-4)GlcNAc(b1-4)[Fuc(a1-6)]GlcNAc
# How it was run: as §1
# [20] = biological target: Gal(b1-3)[Fuc(a1-4)]GlcNAc(b1-3)Gal(b1-3)[Fuc(a1-4)]GlcNAc
# How it was run: as §1
# [21] = biological target: Gal(b1-3)[Fuc(a1-4)]GlcNAc(b1-3)Gal(b1-4)[Fuc(a1-3)]GlcNAc
# How it was run: as §1
# [22] = biological target: Gal(b1-3)[Fuc(a1-4)]GlcNAc(b1-6)GalNAc
# How it was run: as §1
# [23] = biological target: Gal(b1-3)[GlcNAc(b1-6)]GalNAc
# How it was run: as §1
# [24] = biological target: Gal(b1-3)[Neu5Ac(a2-6)]GalNAc
# How it was run: as §1
# [25] = biological target: Gal(b1-3)[Neu5Ac(a2-6)]GlcNAc(b1-4)Gal(b1-4)Glc
# How it was run: as §1
# [26] = biological target: Gal(b1-3)[Neu5Ac(b2-6)]GalNAc
# How it was run: as §1
# Gal(b1-4)Gal = biological target: Gal(b1-4)Gal
# How it was run: as §1
# [27] = biological target: Gal(b1-4)GalNAc(a1-3)[Fuc(a1-2)]Gal(b1-4)GlcNAc
# How it was run: as §1
# [28] = biological target: Gal(b1-4)GalNAc(b1-3)[Fuc(a1-2)]Gal(b1-4)GlcNAc
# How it was run: as §1
# Gal(b1-4)Glc = biological target: Gal(b1-4)Glc
# How it was run: as §1
# Gal(b1-4)Glc6S = biological target: Gal(b1-4)Glc6S
# How it was run: as §1
# Gal(b1-4)GlcNAc = biological target: Gal(b1-4)GlcNAc
# How it was run: as §1
# [29] = biological target: Gal(b1-4)GlcNAc(a1-6)Gal(b1-4)GlcNAc
# How it was run: as §1
# Gal(b1-4)GlcNAc(b1-2)Man = biological target: Gal(b1-4)GlcNAc(b1-2)Man
# How it was run: as §1
# [30] = biological target: Gal(b1-4)GlcNAc(b1-2)Man(a1-3)Man(b1-4)GlcNAc(b1-4)GlcNAc
# How it was run: as §1
# [31] = biological target: Gal(b1-4)GlcNAc(b1-2)Man(a1-3)[Gal(b1-4)GlcNAc(b1-2)Man(a1-6)]Man(b1-4)GlcNAc(b1-4)GlcNAc
# How it was run: as §1
# [32] = biological target: Gal(b1-4)GlcNAc(b1-2)Man(a1-3)[Gal(b1-4)GlcNAc(b1-2)Man(a1-6)]Man(b1-4)GlcNAc(b1-4)[Fuc(a1-6)]GlcNAc
# How it was run: as §1
# [33] = biological target: Gal(b1-4)GlcNAc(b1-2)Man(a1-3)[Gal(b1-4)GlcNAc(b1-2)Man(a1-6)][Gal(b1-4)GlcNAc(b1-4)]Man(b1-4)GlcNAc(b1-4)[Fuc(a1-6)]GlcNAc
# How it was run: as §1
# [34] = biological target: Gal(b1-4)GlcNAc(b1-2)Man(a1-3)[Gal(b1-4)GlcNAc(b1-2)Man(a1-6)][GlcNAc(b1-4)]Man(b1-4)GlcNAc(b1-4)[Fuc(a1-6)]GlcNAc
# How it was run: as §1
# [35] = biological target: Gal(b1-4)GlcNAc(b1-2)Man(a1-3)[GlcNAc(b1-2)Man(a1-6)]Man(b1-4)GlcNAc(b1-4)GlcNAc
# How it was run: as §1
# [36] = biological target: Gal(b1-4)GlcNAc(b1-2)Man(a1-3)[GlcNAc(b1-4)][Gal(b1-4)GlcNAc(b1-2)Man(a1-6)]Man(b1-4)GlcNAc(b1-4)GlcNAc
# How it was run: as §1
# [37] = biological target: Gal(b1-4)GlcNAc(b1-2)Man(a1-3)[Man(a1-6)]Man(b1-4)GlcNAc(b1-4)GlcNAc
# How it was run: as §1
# [38] = biological target: Gal(b1-4)GlcNAc(b1-2)Man(a1-6)Man(b1-4)GlcNAc(b1-4)GlcNAc
# How it was run: as §1
# [39] = biological target: Gal(b1-4)GlcNAc(b1-2)Man(a1-6)[GlcNAc(b1-2)Man(a1-3)]Man(b1-4)GlcNAc(b1-4)GlcNAc
# How it was run: as §1
binder,measurement,setting,value
Epa10 (protein) MNEKIFRYLTLLFLFELARSLPVEDKLNIKKVFEKRAVDFTPFAHYPRPEGCSSPPNSVSVGLHMNLYNYPYLYVKPSTKGMFTNDTNSDADGETDGDSAGGIEGRAGQCWNPEYQDPNFPRFGYKQYGEFGASDNVNGDISWDHNEFTEGCKPVLAALPPGYNYPDEITFSNFTMVLSGYFKPKTSGVYKFELKADDFILFNFGAKNAFECCNREESIDNFGPYVAYAMWPNQADQELEVYLFEDSYYPLRLFYNNRDYHSKFKIGFYPPGQTTITFDFDGYLFMLDDTGNECRDSIRYRTVCDDKVVDDTTYSTRYSTSMVPGGGSDVITIYYIRMKCEEEDCLGQWDPINNVCYSPDDCADDGGYWNGQMCDQSCKLEGGIVNPDTGDCDKSCIESGGFLDENGNCDTTCRDDGGMLVEGQCDYQCKEAGGILVGDHCDTTCVDSGGKLNEDGTCDHSCRDQGGQLDENGECDTSCKDSGGMLIEGECDTSCKDEGGQLDDNNECINHCKDQGGIIDENGNCDTSCKDSGGKLDESGACDTSCRDDGGIIDENGNCNTTCRDDGGIIVGDHCDTSCRDAGGILIEDHCDTTCRDSGGKLNEDGTCDHSCRDQGGQLDENGKCDYSCKNGGGKLDEDGNCDMSCKENGGKLDENGDCDLSCKEDGGKLDGNGDCDYSCKEEGGVIDESGNCNTTCKDSGGQIIDGECNYGCIEVGGVVIDGECDTSCIDSGGILDGDGNCDRSCIESGGVLEDGACNTTCRDSGGQLNVDGTCDTSCRDDGGMLVEGQCDYQCKEAGGILEDGECVFPPTSSSTSETSSTTDQSSLQSDDSSMESSSTPMDSSTIESSSSEIITSESESESVPIASSSSEVMTSESESESIPILTSSSEIPIASSSSEIPVASSSSEIIIPESESESVPVASSSSEIPIASSSSEIPVASSSSEIPVASSSSEIIIPESESESIPIESTSSEAVSSRSESDSSYPTPTPTTTTITTWPNPIQPTTSNSSPIVSSSTETPGIAESSSRISDLESSRRTSILGDDRTRTRTTITSTITEDGQIITITTTVTGFVPEPTGETEGNGSDDENPENPIENNTDENEFLDPEFTDDIPDDPAGPEDNGNGPVNPEQGNDNDPVNLEDSGNNGAVNPEQAPVNDEDNGGNDPVNPEQDNNNGPANPGQDSTNGSGNSDQIDNNPPTPEENAGDGNSNGNDPADPSRRTSILGDERTRASPGGTSQPTGANGNVNGNSPGANVNGGGTGNSNNNNNNNNNNNNGNAPNGGDGSNGDANQGPSRRTSLLGDERTRAGQAAPTGGSSPDNGIAGDTSNNGGAIVSQQVDDGGAGSPRRTSILGDVRSRTTLNGEVLNFEGSGVRRAVAGNLALPLMMVGLVFNL,glycan array binding signal (z-score),[1],-0.126
same,glycan array binding signal (z-score),[2],-0.112
same,glycan array binding signal (z-score),[3],-0.229
same,glycan array binding signal (z-score),[4],-0.172
same,glycan array binding signal (z-score),[5],-0.177
same,glycan array binding signal (z-score),[6],-0.228
same,glycan array binding signal (z-score),[7],-0.134
same,glycan array binding signal (z-score),[8],0.014
same,glycan array binding signal (z-score),[9],0.117
same,glycan array binding signal (z-score),[10],-0.01
same,glycan array binding signal (z-score),[11],-0.085
same,glycan array binding signal (z-score),[12],-0.085
same,glycan array binding signal (z-score),[13],-0.205
same,glycan array binding signal (z-score),[14],-0.051
same,glycan array binding signal (z-score),[15],-0.264
same,glycan array binding signal (z-score),[16],1.13
same,glycan array binding signal (z-score),Gal(b1-3)GlcNAc6S,-0.184
same,glycan array binding signal (z-score),[17],-0.264
same,glycan array binding signal (z-score),[18],-0.084
same,glycan array binding signal (z-score),[19],-0.098
same,glycan array binding signal (z-score),[20],-0.101
same,glycan array binding signal (z-score),[21],-0.254
same,glycan array binding signal (z-score),[22],-0.148
same,glycan array binding signal (z-score),[23],1.89
same,glycan array binding signal (z-score),[24],3.73
same,glycan array binding signal (z-score),[25],-0.23
same,glycan array binding signal (z-score),[26],0.847
same,glycan array binding signal (z-score),Gal(b1-4)Gal,-0.235
same,glycan array binding signal (z-score),[27],-0.313
same,glycan array binding signal (z-score),[28],-0.215
same,glycan array binding signal (z-score),Gal(b1-4)Glc,-0.264
same,glycan array binding signal (z-score),Gal(b1-4)Glc6S,-0.202
same,glycan array binding signal (z-score),Gal(b1-4)GlcNAc,-0.197
same,glycan array binding signal (z-score),[29],1.05
same,glycan array binding signal (z-score),Gal(b1-4)GlcNAc(b1-2)Man,-0.172
same,glycan array binding signal (z-score),[30],-0.107
same,glycan array binding signal (z-score),[31],-0.114
same,glycan array binding signal (z-score),[32],-0.261
same,glycan array binding signal (z-score),[33],-0.267
same,glycan array binding signal (z-score),[34],-0.193
same,glycan array binding signal (z-score),[35],-0.176
same,glycan array binding signal (z-score),[36],-0.275
same,glycan array binding signal (z-score),[37],-0.199
same,glycan array binding signal (z-score),[38],-0.193
same,glycan array binding signal (z-score),[39],-0.21

# Reference: the supplement of paper PMC8728848
